Data taken from article PMC4336329 (PLoS ONE, 2015).
About 14,000 (4.5%) of roughly 310,000 compounds showed an effect of 50% or more. Effects have a minus sign here. Some of the results follow.

What follows are molecules tested against human ether-à-go-go-related gene (hERG) potassium channel (human, UniProt Q12809) (assay: primary screen, population patch clamp on CHO cells stably expressing hERG).
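Note: peak tail current of the secondary pulse compared with the same well before compound.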

Sequence of human ether-à-go-go-related gene (hERG) potassium channel (Q12809 whole entry, looked up): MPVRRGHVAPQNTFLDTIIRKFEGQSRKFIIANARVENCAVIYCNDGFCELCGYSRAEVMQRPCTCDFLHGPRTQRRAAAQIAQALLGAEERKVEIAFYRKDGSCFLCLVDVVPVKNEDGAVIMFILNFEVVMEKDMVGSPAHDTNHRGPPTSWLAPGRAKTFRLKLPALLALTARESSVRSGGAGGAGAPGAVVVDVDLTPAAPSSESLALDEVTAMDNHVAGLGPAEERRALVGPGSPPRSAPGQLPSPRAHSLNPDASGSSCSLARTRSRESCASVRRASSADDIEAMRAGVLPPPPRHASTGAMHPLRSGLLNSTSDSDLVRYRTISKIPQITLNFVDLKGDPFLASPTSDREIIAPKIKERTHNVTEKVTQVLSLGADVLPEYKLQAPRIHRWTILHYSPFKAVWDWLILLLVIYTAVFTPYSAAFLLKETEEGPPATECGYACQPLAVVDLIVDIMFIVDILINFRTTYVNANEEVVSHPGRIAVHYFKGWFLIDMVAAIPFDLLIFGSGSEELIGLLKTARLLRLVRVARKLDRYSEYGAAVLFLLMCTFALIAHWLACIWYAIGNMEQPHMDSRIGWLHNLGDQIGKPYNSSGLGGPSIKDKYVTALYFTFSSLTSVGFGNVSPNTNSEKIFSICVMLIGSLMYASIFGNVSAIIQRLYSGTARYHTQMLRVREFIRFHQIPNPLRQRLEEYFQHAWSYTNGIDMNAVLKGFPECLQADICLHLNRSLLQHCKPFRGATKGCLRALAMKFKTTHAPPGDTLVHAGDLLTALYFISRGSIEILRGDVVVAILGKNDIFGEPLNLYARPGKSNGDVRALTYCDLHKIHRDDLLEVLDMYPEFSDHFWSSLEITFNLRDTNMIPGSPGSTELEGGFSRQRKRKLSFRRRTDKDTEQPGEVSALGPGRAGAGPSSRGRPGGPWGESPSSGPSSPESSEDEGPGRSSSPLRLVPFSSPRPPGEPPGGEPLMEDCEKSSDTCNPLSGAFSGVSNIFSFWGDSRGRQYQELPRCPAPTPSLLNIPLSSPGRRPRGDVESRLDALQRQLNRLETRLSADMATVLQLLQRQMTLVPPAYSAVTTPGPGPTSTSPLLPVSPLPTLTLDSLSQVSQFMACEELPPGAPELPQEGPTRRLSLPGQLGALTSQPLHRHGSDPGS

| SMILES | hERG current change (%, negative = inhibition) at 10uM [%] |
| --- | --- |
| Cc1sc2ncnc(N3CCC(C(=O)NNC(=O)COc4cccc(C(F)(F)F)c4)CC3)c2c1C | -40 |
| O=C(c1ccc(Cl)cc1)N1CCOc2ccccc21 | 1.12 |
| CCN(CC(=O)Nc1ccc(NC(C)=O)cc1)C(=O)c1ccc(=O)[nH]c1 | 15.4 |
| O=C(C1=C[C@@H](C2CC2)C[C@@H](OCc2ccc(CO)cc2)O1)N1CCOCC1 | 15.2 |
| COc1ccc(NC(=O)C2=CC(c3ccc(OC)cc3)=NS(=O)(=O)N2C)cc1 | -0.449 |
| CCN(CC)S(=O)(=O)c1ccc(N/N=C(\C)c2ccc3c(c2)OCO3)c([N+](=O)[O-])c1 | 11.6 |
| CSc1ccc(CCNC(=O)c2cc(C)nn2-c2ccccc2)cc1 | -10.8 |
| COC(=O)c1cc(C)[nH]c2c(C)cc3nc4ccccc4c3c12 | 19.7 |
| O=C(c1ccc2c3c(cccc13)CC2)C1CCCN(C(=O)c2ccc(=O)[nH]c2)C1 (stereo not drawn) | 4.99 |
| NC(=O)C1CCCN(C(=O)c2cccc(S(=O)(=O)N3CCCCCC3)c2)C1 (stereo not drawn) | 4.09 |
| CCC(C)N=Cc1c(O)n(-c2ccccc2)c(=O)[nH]c1=O (stereo not drawn) | 2.37 |
| CCc1nnc(NC(=O)CSc2nnc(CNC(=O)c3ccccc3F)n2C)s1 | 45.3 |
| O=C(O)C1CN(c2nc(Cl)ccc2[N+](=O)[O-])C1 | 12.1 |
| S=C(NCc1ccco1)Nc1ccc(Oc2ccccc2)cc1 | 1.09 |
| Cc1cc(Br)ccc1NC(=S)NC1CCCC1 | -6.93 |
| O=C(c1ccc(Oc2ccc(C(F)(F)F)cn2)cc1)N1CCN(c2ccccc2)CC1 | -43.8 |
| O=C(OCc1nc2ccccc2s1)C1CCN(S(=O)(=O)c2cccs2)CC1 | -42.1 |
| Cc1ccc(C(=O)Nc2cccnc2)cc1[N+](=O)[O-] | 4.19 |
| CCc1ccc(C(=O)NNC(=O)CN2C(=O)NC(CC)(c3ccccc3)C2=O)cc1 (stereo not drawn) | -8.15 |

| SMILES | hERG current change (%, negative = inhibition) at 10uM [%] |
| --- | --- |
| Cc1cc(N)n(-c2ccccc2C)n1 | 23.7 |
| Cc1cc(C(=O)Nc2ccc(C)c(S(=O)(=O)N3CCOCC3)c2)c(C)o1 | -6.59 |
| Cc1ccc(N=C2C(=O)Nc3ccc(C)c(Br)c32)cc1 | 20.7 |
| CCOC(=O)c1cc(NC(=O)Nc2nccs2)c(C)nc1C | 3.76 |
| CCCN1CCC(NC(=O)Nc2cc(Cl)ccc2OC)CC1 | -19.1 |
| Cc1csc(NC(=O)CSc2nnc3ncccn23)n1 | -14.3 |
| CC1SC(=NC(=O)c2ccco2)NC1=O (stereo not drawn) | -0.94 |
| CCOC(=O)C1=C(C)NC(=O)NC1c1ccc(OC)c(Cl)c1 (stereo not drawn) | -16.3 |
| CC(C)C(=O)Nc1nc(-c2ccc([N+](=O)[O-])cc2)cs1 | 7.04 |
| CSCC[C@H](NC(=O)NCc1cccs1)C(=O)O | -10.4 |
| COc1ccc(CNc2ccc(Cl)cc2)cc1Cn1ccnc1 | -20.3 |
| O=C(NC(=S)N1CCOCC1)C12CCC3CC(CC(C3)C1)C2 | 16.2 |
| Cc1cc(C[n+]2ccsc2N)c2ncccc2c1.[Br-] | -48.2 |
| COc1ccc(-n2cnc3cc(C(=O)NCCN4CCOCC4)ccc32)cc1 | -23.8 |
| COc1cccc(C2C(C(=O)OC(C)C)=C(C)Nc3ncnn32)c1 (stereo not drawn) | -9.09 |
| CC(C)(C)c1ccc(NC(=O)Nc2ccc(OCC(=O)N3CCOCC3)cc2)cc1 | -10.2 |
| Cc1nc2ccc(S(=O)(=O)NC(C(=O)Nc3nc4ccc(Cl)cc4s3)C(C)C)cc2s1 (stereo not drawn) | 0.0384 |
| Cc1cnc(N2C(=O)c3ccc([N+](=O)[O-])cc3C2=O)s1 | 21.3 |
| Cc1occc1C(=O)Nc1nnc(-c2ccncc2)s1 | 2.12 |

| SMILES | hERG current change (%, negative = inhibition) at 10uM [%] |
| --- | --- |
| CC1=CCC(C(C)(C)NC(=O)c2ccccc2)C/C1=N\O (stereo not drawn) | -12.4 |
| O=C(NNC1=NCCC1)c1cccc(S(=O)(=O)N2CCCCC2)c1 | 21.1 |
| CCOc1ccccc1-c1nc(C(N)=O)c2[nH]c(=O)n(-c3ccccc3)c2n1 | 13.4 |
| COc1cccc(NS(=O)(=O)c2ccc3c(c2)CCCN3C(C)=O)c1 | -7.1 |
| CC1CCCN(C(=O)C2(NC(=O)Nc3cccc(F)c3)CCCCC2)C1 (stereo not drawn) | 6.43 |
| CCC(=O)N1CCc2cc(S(=O)(=O)NC(C(=O)NCc3ccc(C)cc3)C(C)C)ccc21 (stereo not drawn) | 3.13 |
| COc1ccc(C2=NC(=O)/C(=C\c3cc(OC)c(OC)c(OC)c3)O2)cc1 | 8.26 |
| Cc1nc2nc(C)c(NS(=O)(=O)c3ccc4c(c3)CCCC4)c(=O)n2[nH]1 | 13.6 |
| O=C(CCC(=O)N1CCOc2ccc(Cl)cc21)NCCCN1CCOCC1 | 6.57 |
| CC(/C=N/NC(=O)c1ccncc1)=C\c1ccco1 | 34.7 |
| CCOC(=O)N1CCN(C(=O)/C=C/c2ccc(OC)c(OC)c2)CC1 | 8.05 |
| Cc1cccc(NS(=O)(=O)c2c(C)n[nH]c2C)c1 | -0.407 |
| Cc1ccc(C(=O)Nc2cccc([N+](=O)[O-])c2)cc1S(=O)(=O)Nc1ccc(NC(=O)c2ccccc2)cc1 | 3.23 |
| O=C(C1=C[C@@H](c2ccc(Br)cc2)C[C@@H](OCCCCO)O1)N1CCOCC1 | -15.7 |
| Cc1cc(O)c(C(C)C)cc1NC(=O)Nc1cccc2ccccc12 | 14.3 |
| CCCNC(=O)Nc1cc(OC)c(OC)cc1Cc1nccc2cc(OC)c(OC)cc12 | -10.9 |
| Cc1ccc(C(=O)CSc2ccc(-c3cccnc3)nn2)cc1 | -2.06 |
| CSc1nc2c(c(C(F)(F)F)n1)CC(C)CC2 (stereo not drawn) | 20 |
| Cc1cc2c(cc1S(=O)(=O)N(C)c1ccccc1)NC(=O)CO2 | -0.364 |
